# Test results from article PMC4336329 (PLoS ONE, 2015).
# Out of some 310,000 compounds screened, about 14,000 (4.5%) showed an effect of 50% or more. Effects have a minus sign here. Some of the results follow.
# Target: human ether-à-go-go-related gene (hERG) potassium channel (human, UniProt Q12809)
# Test: primary screen, population patch clamp on CHO cells stably expressing hERG
# 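Note: peak tail current of the secondary pulse compared with the same well before compound.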
# Sequence of human ether-à-go-go-related gene (hERG) potassium channel (Q12809 whole entry, looked up): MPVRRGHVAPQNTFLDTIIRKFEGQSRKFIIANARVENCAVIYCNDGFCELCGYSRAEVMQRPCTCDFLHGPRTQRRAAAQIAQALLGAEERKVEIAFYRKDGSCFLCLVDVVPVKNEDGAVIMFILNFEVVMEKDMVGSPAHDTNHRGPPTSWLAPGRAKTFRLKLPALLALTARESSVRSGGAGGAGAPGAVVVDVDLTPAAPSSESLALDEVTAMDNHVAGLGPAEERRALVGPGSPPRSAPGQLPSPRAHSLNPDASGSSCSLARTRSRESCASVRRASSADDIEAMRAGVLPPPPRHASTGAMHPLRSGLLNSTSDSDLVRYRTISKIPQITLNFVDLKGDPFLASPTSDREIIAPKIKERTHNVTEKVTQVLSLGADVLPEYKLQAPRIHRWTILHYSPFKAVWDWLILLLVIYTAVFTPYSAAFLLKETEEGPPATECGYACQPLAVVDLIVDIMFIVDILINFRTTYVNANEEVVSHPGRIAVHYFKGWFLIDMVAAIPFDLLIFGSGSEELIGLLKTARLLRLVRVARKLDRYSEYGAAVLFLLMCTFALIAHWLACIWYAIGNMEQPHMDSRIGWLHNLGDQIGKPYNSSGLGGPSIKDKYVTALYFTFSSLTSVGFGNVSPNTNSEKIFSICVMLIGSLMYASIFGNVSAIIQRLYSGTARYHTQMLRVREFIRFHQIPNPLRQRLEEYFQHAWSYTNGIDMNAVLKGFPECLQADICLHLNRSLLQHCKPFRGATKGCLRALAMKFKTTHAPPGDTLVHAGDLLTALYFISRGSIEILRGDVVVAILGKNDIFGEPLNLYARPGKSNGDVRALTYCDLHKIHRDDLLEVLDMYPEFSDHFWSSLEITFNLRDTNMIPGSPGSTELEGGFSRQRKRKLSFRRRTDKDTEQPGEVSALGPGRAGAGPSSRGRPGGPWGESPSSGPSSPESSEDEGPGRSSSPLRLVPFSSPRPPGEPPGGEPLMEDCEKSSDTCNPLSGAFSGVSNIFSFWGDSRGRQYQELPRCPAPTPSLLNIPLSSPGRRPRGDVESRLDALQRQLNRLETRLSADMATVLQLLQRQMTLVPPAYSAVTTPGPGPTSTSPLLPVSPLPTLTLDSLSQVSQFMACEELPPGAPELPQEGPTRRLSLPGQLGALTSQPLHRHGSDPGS
row,Structure (SMILES),"hERG current change (%, negative = inhibition) at 10uM [%]"
1,COc1cccc(-n2c(C)nc3ccccc3c2=O)c1,-2.51
2,COC(=O)N(C)c1nc2ccccc2s1,2.85
3,CCOc1ccc(NC(=O)CN2CCN(c3ccc(F)cc3)CC2)cc1,-22.2
4,Br.Cc1ccnc(Nc2nc(-c3sc(C)nc3C)cs2)c1,4.9
5,N#Cc1ccc(-c2csc(NNC(=O)c3ccc(Br)cc3)n2)cc1,-3.4
6,CCN(CC(=O)Nc1cccc(OC)c1)CC(=O)Nc1ccc(Br)c(C)c1,14.5
7,Cc1ccc2occ(C(c3nnnn3Cc3ccccc3)N3CCOCC3)c(=O)c2c1 (centres unmarked),1.59
8,CN(C)CCCNc1ccc(-c2cc(Nc3cccc(Cl)c3)ncn2)cn1,-58.4
9,CCOCC(=O)Nc1ccc(S(=O)(=O)Nc2ncccn2)cc1,17.7
10,CC(=O)C[C@H]1c2cc(C(F)(F)F)ccc2S(=O)(=O)N1c1ccccc1,-7.57
11,COc1nc2ccccc2nc1N1CCN(C)CC1,-23.9
12,CCN(c1cccc(C)c1)S(=O)(=O)c1ccc(-c2ccc(=O)[nH]n2)o1,9.92
13,CCN1CCN(c2nc3c(c(=O)[nH]c(=O)n3C)n2CCCc2ccccc2)CC1,-79.2
14,CC(=O)c1cccc(NCC(=O)Nc2cccc(S(=O)(=O)N3CCCCC3)c2)c1,-31.6
15,CCn1cc(S(=O)(=O)CC(=O)Nc2ccc(C)cc2)c2ccccc21,17.5
16,COCCN(C(=O)CSc1nc2ccccc2c(=O)n1CCOC)c1c(N)n(Cc2ccccc2)c(=O)[nH]c1=O,11
17,COc1cccc(C2=NN(C(=O)c3cccs3)C(O)(C(F)(F)F)C2)c1 (centres unmarked),21
18,CCCCNC(=O)C1(c2ccc(OC)cc2)CCOCC1,18.4
19,Cc1cc2nc(CS)[nH]c2cc1C,16
20,COn1c(C)c(C(C)=O)c2c3no[n+]([O-])c3ccc21,17.1
21,CCN(C(=S)NCc1ccccc1)c1cccc2ccccc12,30.1
22,COc1cc(C=O)ccc1OCCCCOc1ccccc1[N+](=O)[O-],-10.9

row,Structure (SMILES),"hERG current change (%, negative = inhibition) at 10uM [%]"
1,COc1cc(/C=C/C(=O)OCC(=O)Nc2nnc(-c3ccccc3)o2)cc(OC)c1OC,-4.67
2,Cc1ccccc1COC(=O)CCC1=NS(=O)(=O)c2ccccc2N1,6.03
3,C#CC(=O)N(c1ccc(OC)c(OC)c1)C(C(=O)NC1CCCC1)c1cccs1.Cl (centres unmarked),10.2
4,O=C(COc1ccc(-n2cnnn2)cc1)Nc1ccccc1Cl,18.2
5,O=C(Nc1ccc(F)cc1)C1CCN(C(=O)c2ccc(F)cc2)CC1,-37.4
6,COCCN1C(=O)c2oc3ccccc3c(=O)c2C1c1ccc(O)c(OC)c1 (centres unmarked),3.72
7,COc1ccc(/C=N/NC(=O)CSCC(=O)Nc2ccccc2)cc1,13.8
8,CCOc1ccccc1NC(=O)C(c1ccccc1)N1CCN(CC(=O)N2CCOCC2)CC1 (centres unmarked),-76.1
9,Cc1ccc(S(=O)(=O)N2CCOCC2)cc1NC(=O)COC(=O)CNC(=O)c1ccc(Oc2ccccc2)cc1,-0.374
10,CCC1(CC)NC(=O)N(CC(=O)OCC(=O)c2ccccc2OC)C1=O,0.647
11,Cc1cccc(N2CCN(C(=O)NC3CCCCC3)CC2C)c1 (centres unmarked),4.08
12,Cc1ccccc1-n1nnnc1SCC(N)=O,12.7
13,COc1cc(C(=O)NNC(=O)NC2CCCCC2)cc(OC)c1OC,6.32
14,CN(C(=O)c1cc2c(=O)n3ccccc3nc2n1C)C1CCCCC1,-11.2
15,O=C(Nc1ccccc1N1CCOCC1)c1ccc2c(c1)OCCO2,-11
16,Cc1cc(OCC(=O)NC(C)C)cc(C)c1Cl,-3.7
17,CCOc1cccc(C2C(C(=O)c3ccc(C)o3)=C(O)C(=O)N2CCCn2ccnc2)c1 (centres unmarked),-8.37
18,O=C(CO/N=C1\CCCc2nonc21)Nc1ccc(Br)cc1,-15
19,CS(=O)(=O)NCCNc1ccc(C(F)(F)F)cc1[N+](=O)[O-],-6.08
20,CC(=O)N(/C=C1\SC(=S)N(c2ccccc2)C1=O)c1ccccc1,-7.86
21,O=c1[nH]c(-c2ccccc2)nc2ccccc12,15.4
22,COC(=O)C1=C(C)N(c2cc(C)cc(C)c2)/C(=C/c2ccc(O)cc2)C1=O,-2.57
